Reference: PubChem BioAssay AID2202238 (Ras Initiative Chemistry Research Team, Frederick National …, 2025)
Among all 2,200 compounds or so, fewer than 10 were called active. Some of the results follow. The source made no clear call on entries shown without one.

target: GTPase KRas (Homo sapiens) (UniProt P01116); assay: Cysteine mutants labelled by reactive fragments (mass read-out) (AID 2202238); parameters: protein at 5 µM with 500 µM competing thiol for 1.5 h; details: KRAS G12D cysteine mutants, disulfide tethering, MALDI-TOF labeling; stronger effect = higher value; H27C mutant labeling; fragment at 500 µM
UniProt P01116, sequence (P01116 whole entry, looked up, the tested form may be a part): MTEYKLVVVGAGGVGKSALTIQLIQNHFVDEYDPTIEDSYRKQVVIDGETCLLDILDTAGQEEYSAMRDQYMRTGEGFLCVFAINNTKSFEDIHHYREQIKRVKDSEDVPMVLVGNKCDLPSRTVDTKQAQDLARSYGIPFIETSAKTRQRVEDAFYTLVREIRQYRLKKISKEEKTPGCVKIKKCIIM

| SMILES | percent labeling |
| --- | --- |
| O=C(NCCS)c1oc2ccccc2c1COc1ccccc1 | 27.2% |
| O=C(NCCS)c1cc2sc3ccccc3c2s1 | 15.4% |
| COc1ccc2cc(C(=O)NCCS)n(C)c2c1 | 20.1% |
| O=C(NCCS)c1cnn(-c2ncccc2Cl)c1C(F)(F)F | 40.3% |
| O=C1CC2(CCOC2)C(C(=O)NCCS)CN1 (stereo not drawn) | 26.3% |
| O=C(NCCS)c1ccn(-c2ccc(Cl)cc2Cl)n1 | 32.4% |
| Cc1cccc(C)c1-n1nnnc1CNC(=O)CCS | 41.4% |
| O=C(CCCOc1ccc2c(c1)CCC(=O)N2)NCCS | 40.8% |
| Cn1cc(C(=O)NCCS)c2c(c1=O)CCCC2 | 38.7% |
| O=C1CC(C(F)(F)F)C(C(=O)NCCS)N1 (stereo not drawn) | 35.5% |
| O=C(CCS)NCc1conc1C1CCC1 | 42% |
| O=C(CCS)NCc1ccncc1OCC(F)(F)F | 35.6% |
| COCCC1(c2nc(C)no2)CCN(C(=O)CCS)CC1 | 38.3% |
| O=C(CCS)NC1(c2ccc(Br)cn2)CCC1 | 45.7% |
| O=C(CCS)NCc1nnc(-c2ccncc2F)s1 | 42.3% |
| CCc1occ(C(F)(F)F)c1C(=O)NCCS | 33.3% |
| Cc1nc2c(c(C(F)(F)F)n1)CC(C(=O)NCCS)CC2 (stereo not drawn) | 40.1% |
| CN(C(=O)CCS)C(Cc1ccc(F)cc1)c1ccn(C)n1 (stereo not drawn) | 47% |
| CS(=O)(=O)Cc1n[nH]c(CNC(=O)CCS)n1 | 26.1% |
| O=C(CCS)Nc1cc(F)c(-n2ccnc2)c(F)c1 | 45.7% |
| O=C(NCCS)c1cnn(-c2ccccc2F)c1 | 39.5% |
| Cc1cc(CNC(=O)CCS)cc(N2CCCC2)n1 | 45% |
| O=C(NCCS)c1cc(Br)n2c1CCC2 | 33.6% |
| Cn1cc(Br)cc1C(=O)NCCS | 33.4% |

| SMILES | percent labeling |
| --- | --- |
| Cc1ccc(CN(C(=O)CCS)c2ccc3[nH]c(=O)[nH]c3c2)cc1 | 32.3% |
| CN(C)C(=O)COc1ccccc1C(=O)NCCS | 32% |
| CCn1nccc1CN(CCO)C(=O)CCS | 26.6% |
| Cc1cccc(Nc2ccccc2C(=O)NCCS)c1C | 24.7% |
| Cc1csc(-c2ccc(C(=O)NCCS)cc2)n1 | 26.2% |
| O=C(CCS)Nc1cccc(CN2C(=O)CNC2=O)c1 | 49.6% |
| NC(=O)Cc1cc(Br)c(-c2ccc(NC(=O)CCS)cc2)s1 | 40% |
| CC(C)C(NC(=O)Cc1ccccc1)C(=O)NCCS (stereo not drawn) | 31% |
| O=C(Nc1sc2c(c1C(=O)NCCS)CCC2)c1ccco1 | 11.4% |
| O=C(CCS)NCC1(O)CCC2(CC1)OCCO2 | 0% |
| O=C(CCS)N1CCn2c(nc3c2CCCC3)C1 | 39% |
| O=C(NCCS)c1cc(-n2cccc2)ccc1Cl | 20.4% |
| O=C(CCS)Nc1ncc(Cc2cccc(Cl)c2)s1 | 37.9% |
| CCc1nn(C)c(CC)c1CC(=O)NCCS | 28.6% |
| O=C(CCn1c(=O)oc2ccccc21)NCCS | 31% |
| Cn1cc(-c2cncc(C(=O)NCCS)c2)cn1 | 55.6% |
| O=C(CCS)N1CCCC(c2ccn[nH]2)C1 (stereo not drawn) | 45.9% |
| O=C(NCCS)C1(C(F)(F)F)CCN(c2ccccn2)C1 (stereo not drawn) | 33.2% |
| Cc1ccc(-c2cc(NC(=O)CCS)n[nH]2)cc1 | 30.4% |
| O=C(CCS)Nc1ccccc1N1CCC(CO)CC1 | 36.1% |
| Cc1ncsc1C(=O)NCCNC(=O)CCS | 27.7% |
| Cc1cc(Br)cc2cc(C(C(C)C)N(C)C(=O)CCS)oc12 (stereo not drawn) | 30.1% |
| Cn1ccnc1Cn1cccc(NC(=O)CCS)c1=O | 38.2% |
| Cc1cc(C)n(-c2ccc(C(=O)NCCS)cc2F)n1 | 37.7% |

| SMILES | percent labeling |
| --- | --- |
| O=C(NCCS)c1cnn2cccc(Br)c12 | 41.1% |
| O=C(NCCS)c1ccc2c(ccn2Cc2ccccc2)c1 | 26.1% |
| O=C(CCS)N1CCC(O)(c2cccc3cnccc23)CC1 | 57% |
| O=C(CCS)N1CCN(c2cc(F)cc(F)c2)CC1 | 31.7% |
| O=C(CCS)Nc1ccc2[nH]c(=O)sc2c1 | 37.5% |
| COc1cc(C(=O)NCCS)cc2c1OC(C)C2 (stereo not drawn) | 39.1% |
| COc1cccc(-c2cc(C(=O)NCCS)[nH]n2)c1 | 29.5% |
| O=C(NCCS)c1ccccc1O | 34.3% |
| COc1ccc(-c2cc(C(=O)NCCS)sc2C)cc1 | 35.7% |
| Cc1nc(N2CCN(C)CC2)ccc1NC(=O)CCS | 56.3% |
| Cc1c(NC(=O)CCS)cccc1N1CCCCC1 | 23.4% |
| O=C(NCCS)c1cn(-c2ccc(Cl)c(Cl)c2)cn1 | 20.2% |
| Cc1cc(C)n(Cc2cccc(C(=O)NCCS)c2)n1 | 48.6% |
| Cc1noc(C2COCCN2C2CN(C(=O)CCS)C2)n1 (stereo not drawn) | 36.6% |
| CCOC(=O)c1sc(NC(=O)CCS)cc1C1CC1 | 37.1% |
| O=C(NCCS)C1C2Cc3ccc(Br)cc3C21 (stereo not drawn) | 21.8% |
| COC1CC2(CCC(C(=O)NCCS)CC2)C1 (stereo not drawn) | 33.1% |
| O=C(NCCS)c1cnn(-c2cncc3nnnn23)c1 | 16.8% |
| Cc1nnc(SCC2CCCN2C(=O)CCS)s1 (stereo not drawn) | 40.1% |
| Cn1nc(CNC(=O)CCS)cc1C(N)=O | 33.4% |
| CC(C)(C)OCC(=O)NC(C)(C)C(=O)NCCS | 28.6% |
| Cn1nc(CCNC(=O)CCS)nc1-c1ccccc1 | 33.3% |
| O=C(CC1(c2ccc(C(F)(F)F)cc2)CC1)NCCS | 27.3% |
| O=C(CCS)N1CC(c2cc3n(n2)CCCC3)C1 | 36.1% |

| SMILES | percent labeling |
| --- | --- |
| CN1CCCN(C(=O)CCS)c2ccccc21 | 22.7% |
| CN1CCC(c2ccccc2)CC1C(=O)NCCS (stereo not drawn) | 49% |
| O=C(CCS)N(Cc1ccc(Cl)cc1)c1ccccc1 | 33% |
| COc1ccc2c(c1)C1(CC1)CN(C(=O)CCS)C2 | 25.1% |
| COCc1ccc(C(=O)NCCS)cc1OC | 32.9% |
| O=C(NCCS)c1c[nH]c(=O)cc1C(F)(F)F | 27.8% |
| CC(Cn1ncc2ccccc21)C(=O)NCCS (stereo not drawn) | 30.9% |
| O=C(NCCS)c1cc(Br)cc2[nH]c(=O)[nH]c12 | 46.9% |
| CC(C)n1cc2cc(NC(=O)CCS)ccc2n1 | 35.4% |
| O=C(CCS)NC1(c2ncon2)CCOCC1 | 7.9% |
| O=C(CCS)N1CCC(O)(C(F)(F)F)CC1 | 27.3% |
| Cc1cc(CN2CCN(C(=O)CCS)CC2)on1 | 34% |
| O=C(NCCS)c1ccc(-c2noc(C(F)F)n2)cc1 | 22.7% |
| Cc1nc2ccc(NC(=O)CCS)cc2c(=O)[nH]1 | 39.8% |
| Cc1cc(C)c(CNC(=O)CCS)c(=O)[nH]1 | 40.9% |
| Cc1cc(=O)oc2cc(OCC(=O)NCCS)ccc12 | 22.8% |
| CN(Cc1ccc2n[nH]nc2c1)C(=O)CCS | 41.2% |
| O=C(Cc1coc2ccc3ccccc3c12)NCCS | 22.8% |
| O=C(CCS)NCC1CC2(CC2)S(=O)(=O)N1 (stereo not drawn) | 28.7% |
| CN1CCCC(c2cccc(C(=O)NCCS)c2)C1 (stereo not drawn) | 68.1% |
| O=C(CCS)N1CCc2ccccc2C1c1nc2ccccc2[nH]1 (stereo not drawn) | 36.9% |
| O=C(Cc1ccc(C2CCCCC2)cc1)NCCS | 25.6% |
| O=C(CCS)Nc1cccc(OCc2cccc(F)c2)c1 | 26.5% |
| CC(C)(C)OC(=O)N1CC2(CCN2C(=O)CCS)C1 | 21.7% |

| SMILES | percent labeling |
| --- | --- |
| COc1ccc(S(C)(=O)=O)cc1C(=O)NCCS | 52.2% |
| O=C(CCS)NCC(O)c1cc(Cl)c2c(c1)OCCO2 (stereo not drawn) | 48.2% |
| CC(=O)Nc1cc(NC(=O)CCS)ccc1F | 35% |
| CC(C)(C)C1CCC(O)(CNC(=O)CCS)CC1 (stereo not drawn) | 24.8% |
| Cc1nn(C)c(-n2cncn2)c1C(=O)NCCS | 39.3% |
| Cc1cccn2cc(-c3cccc(NC(=O)CCS)c3)nc12 | 30.6% |
| O=C(CCNC(=O)c1cccs1)NCCS | 25.4% |
| O=C(Cn1cnc2sccc2c1=O)NCCS | 33.9% |
| CCn1cnnc1-c1ccc(C(=O)NCCS)cc1 | 39.9% |
| CN(Cc1ccccc1Oc1ccc(Cl)c(Cl)c1)C(=O)CCS | 27.4% |
| O=C(NCCS)C1CCCCN1C1CCCC1 (stereo not drawn) | 37.5% |
| CC1(C)C=Cc2cccc(NC(=O)CCS)c2O1 | 33.6% |
| O=C(CCS)NCC1CCN(c2ccncc2)CC1 | 49.3% |
| CN(c1ccccc1)c1nc(C(=O)NCCS)cs1 | 31.4% |
| O=C(CCS)NCCN1CCN(C(=O)C2CCC2)CC1 | 36.4% |
| Cc1cc(NC(=O)CCS)nn1-c1cccc(Cl)c1 | 37.4% |
| COC1(c2cccc(C(=O)NCCS)c2)COC1 | 44.5% |
| CC(F)(F)c1cncc(CNC(=O)CCS)c1 | 32.6% |
| Cc1c(C(=O)NCCS)cnn1CCC(C)C | 39.2% |
| O=C(CCS)N(Cc1ccccc1)Cc1ccccc1 | 28.9% |
| Cn1c(=O)n(C)c2cc(N3CCCCC3)c(NC(=O)CCS)cc21 | 31.2% |
| O=C(CCS)N(CCN1CCOCC1)c1ccccc1F | 42% |
| CC(C)CCc1cc(NC(=O)CCS)n[nH]1 | 44.1% |
| Cc1cccn2cc(COc3ccccc3C(=O)NCCS)nc12 | 26.7% |

| SMILES | percent labeling |
| --- | --- |
| O=C(NCCS)c1cnc(-c2cnccn2)s1 | 37.6% |
| CC1(C)C(=O)Nc2ccc(CNC(=O)CCS)cc21 | 42.1% |
| O=C(CN1C(=O)CCOc2ccccc21)NCCS | 35.2% |
| O=C(CCS)N1CCC(Cn2cncn2)CC1 | 37% |
| O=C(CCS)NCCc1cc(O)cc(F)c1 | 39.9% |
| Cc1nnnn1C(Cc1ccc(F)cc1)C(=O)NCCS (stereo not drawn) | 41.3% |
| CN(C)Cc1nc2ccc(NC(=O)CCS)cc2[nH]1 | 47.6% |
| Cc1nc(C(F)(F)F)ccc1C(=O)NCCS | 29.6% |
| O=C(NCCS)c1ccn(C2CCOCC2)n1 | 38.6% |
| O=C(NCCS)c1cccc(-n2[nH]c(=O)ccc2=O)c1 | 20.3% |
| Cc1cccc2c(=O)n(CCC(=O)NCCS)cnc12 | 38.8% |
| O=C(CCN1C(=O)COc2ccccc21)NCCS | 27.8% |
| CC(C)(C)OC(=O)N1CCC2(CCN(C(=O)CCS)CC2)CC1 | 33.4% |
| CN(C)C(C(=O)NCCS)c1ccccc1 (stereo not drawn) | 38.8% |
| O=C(NCCS)c1cc(C2CCOCC2)[nH]n1 | 43.4% |
| CCOC(=O)c1[nH]ncc1C1CCCN(C(=O)CCS)C1 (stereo not drawn) | 47.4% |
| O=C(CCS)Nc1ccccc1N1CC2CCC1C2 (stereo not drawn) | 30.9% |
| CC(c1cc(Cl)ccc1Cl)n1nccc1NC(=O)CCS (stereo not drawn) | 27.7% |
| CNC(=O)N1CCC(NC(=O)CCS)CC1 | 25.8% |
| O=C(CCS)NC1CCN(C2CCOC2=O)CC1 (stereo not drawn) | 29% |
| O=C(CCS)NC1CCN(Cc2ccc(Cl)cc2)CC1 | 52.8% |
| O=C(NCCS)c1nc2ccccn2c1Br | 36.9% |
| O=C(CCS)NCCCN(C1CC1)S(=O)(=O)c1cccc(F)c1 | 34.4% |
